Data taken from PubChem BioAssay AID995 (National Center for Advancing Translational Sciences (NCATS), 2007).
The campaign covered roughly 72,000 compounds. About 710 (0.99%) were called active. The shares of active, inactive and inconclusive entries below differ from those in the screen. The call rests on the fitted dose curve; in most records, active means well fitted inhibition curve with a large enough effect; inconclusive means small, poorly fitted or top-dose-only effect; inactive means no such curve, though single readings can be large or run the other way. No potency is given beside an inconclusive call; the fits are too rough.
On the % scale 0 is the no-effect control and ±100 the full control effect; potency means the concentration at half of the fitted maximal effect; tags describe the fitted curve by direction and shape.

Test: qHTS Assay for Inhibitors of the ERK Signaling Pathway using a Homogeneous Screening Assay; further: nearly all actives have a fitted effect of over 55% in size
Conditions: HEK293-V1b, vasopressin-stimulated pERK AlphaScreen; activity, negative = inhibition: at 57.5 µM (top of the series) unless noted
In short: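 HEK293 cells stably expressing V1b receptor, preincubated 30 min at 37 °C with compound, then stimulated 5 min with 25 nM vasopressin. Phospho-ERK by AlphaScreen SureFire after 5 h RT; normalized to DMSO and vasopressin; AC50 by Hill fit.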
For `COC(=O)CCC(=O)c1oc2ccc(Br)cc2c1N`, the “activity, negative = inhibition” value was inactive: -14%. In the case of `Cc1cc(-c2ccccc2)n(-c2ccc(C(=O)N3CCN(c4ncccn4)CC3)cc2)n1`, the Potency is reported as inconclusive [inhibitor, partial curve]. With `CCCCCCCCCCCCC/C=C\[C@@H](O)[C@H](CO)NC(C)=O` the Potency was inconclusive [inhibitor, partial curve, poor fit]. With `Cc1ccc(-n2ncc(-c3nnc(SCC(=O)NC4CCCC4)o3)c2N)cc1C` the Potency was inconclusive [inhibitor, single point]. In the case of `COc1ccc(-c2nc3cnc(N(C)C)nc3n(C)c2=O)cc1`, the “activity, negative = inhibition” value is reported as inactive: 35.9%. With `CCn1c(CNc2ccc(C)cc2)nnc1SCC(=O)NCc1ccccc1` the Potency was inconclusive [inhibitor, partial curve, poor fit]. For `Cc1cc(C)n2nc(SCC(=O)c3cc(C)n(-c4cc(C)on4)c3C)nc2n1`, the “activity, negative = inhibition” value was inactive: 4.5%. In the case of `O=C(NC1=NCCS1)c1ccc(-c2ccc(Cl)cc2)o1`, the “activity, negative = inhibition” value is reported as inactive: 0.412%. With `OCCSc1nc(-c2cccnc2)nc2ccccc12` the Potency was inconclusive [inhibitor, full curve, poor fit]. With `CC(=O)NCCNc1nc(-c2cccc(NS(C)(=O)=O)c2)nc2ccccc12` the “activity, negative = inhibition” value was inactive: -29.9%. For `COCCn1c(C)cc(C(=O)CSc2ccc(NC(C)=O)cc2)c1C`, the “activity, negative = inhibition” value was inactive: -3.81%. With `COc1cc(CNc2ccc3c(c2)CCC3)cc(OC)c1O` the “activity, negative = inhibition” value was inactive: 8.19%. In the case of `CCOC(=O)C1CCN(C(=O)c2oc3ccc(S(=O)(=O)N4CCCCCC4)cc3c2C)CC1`, the Potency is reported as inconclusive [inhibitor, single point]. With `Cc1nc(N2CCOCC2)c2oc3ccccc3c2n1` the Potency was inconclusive [inhibitor, partial curve]. With `c1ccc(COc2nsnc2N2CCOCC2)cc1` the Potency was active: 25.1 µM. For `CCOC(=O)CSc1nnc(-c2ccccc2NC(=O)c2ccccc2)o1`, the “activity, negative = inhibition” value was inactive: 8.57%. In the case of `Cc1cc(C)c(C)c(S(=O)(=O)Nc2ccc(O)cc2)c1C`, the Potency is reported as inconclusive [inhibitor, single point]. With `NC(=O)c1cc(Cl)cn(-c2ccccc2)c1=O` the Potency was inconclusive [inhibitor, partial curve]. With `O=C(Nc1ccc2c(c1)OCCO2)c1ccc(Cl)c(S(=O)(=O)N2CCOCC2)c1` the activity, negative = inhibition was inconclusive: -39.4% [inhibitor]. For `CCOC(=O)COc1ccc2cc(C(=O)OCC)c(=O)oc2c1`, the Potency was inconclusive [inhibitor, full curve, poor fit]. With `Cc1nc(NCC2CCCO2)nc2c1C(=O)CC(C)C2` (stereo not given) the Potency was inconclusive [inhibitor, partial curve]. In the case of `COCCn1c(=O)c(CCc2ccccc2)nc2cnc(Oc3ccc(OC)cc3)nc21`, the “activity, negative = inhibition” value is reported as inactive: -4.06%. In the case of `O=C(c1cccc(F)c1)N1CCC2(CC1)CN(Cc1ccccc1)C2`, the “activity, negative = inhibition” value is reported as inactive: 4%. In the case of `Cc1ccc(C)c2[nH]c(=O)c(C(c3nnnn3C3CCCC3)N3CCOCC3)cc12` (stereo not given), the Potency is reported as inconclusive [inhibitor, partial curve, poor fit]. For `COC(=O)[C@@H]1CC[C@H](C)[C@@H](c2ccc(C)cc2)N1C(=O)c1ccc(/C=N\OC[C@@H](C)[C@H](OCc2ccccc2)C(C)C)cc1`, the activity, negative = inhibition was inactive: 9.07% [at 11.5 µM]. In the case of `Cc1ccccc1NC(=O)c1cc(N)ccc1N1CCCCC1`, the Potency is reported as inconclusive [inhibitor, single point]. For `COc1ccc(CCNc2nc(-c3sc(N)nc3C)cs2)cc1OC`, the Potency was inconclusive [inhibitor, single point]. With `N[C@@H](C(=O)O)c1ccc(C(=O)O)c(C(=O)O)c1` the Potency was “inactive”. For `COCCN1C=C(C(=O)OC)C(c2cc(Br)c(OC)c(OC)c2)C(C(=O)OC)=C1`, the “activity, negative = inhibition” value was inactive: 36.7%. For `Cc1nc(N)sc1-c1csc(N(C)c2ccc(O)cc2)n1`, the Potency was inconclusive [inhibitor, single point]. In the case of `COc1ccc(-n2c(=O)cnc3cnc(N(C)C)nc32)cc1`, the “activity, negative = inhibition” value is reported as inactive: -29.9%. In the case of `COc1ccc(-c2c(C)nn3c(N4CCN(Cc5ccccc5)CC4)cc(C)nc23)cc1OC`, the Potency is reported as inconclusive [inhibitor, partial curve, poor fit]. In the case of `CC(=O)Nc1cccc(Oc2cc(C#N)c(C#N)cc2N2CCCCCC2)c1`, the Potency is reported as inconclusive [inhibitor, partial curve]. With `CCOc1ccc(OCC)c(NS(=O)(=O)c2cccc3nsnc23)c1` the “activity, negative = inhibition” value was inactive: 1.29%. With `Cc1nn(Cc2ccccc2)c2sc(C(=O)NCc3cccnc3)cc12` the Potency was inconclusive [inhibitor, partial curve]. With `Cc1nnc2n(CCc3ccccc3)c(=O)c3c4c(sc3n12)CCCC4` the Potency was inconclusive [inhibitor, full curve, poor fit]. With `Cc1cc(NC(=O)c2cc(-c3ccncc3)nc3c(C)cccc23)no1` the “activity, negative = inhibition” value was inactive: -17.3%. For `COc1cc(OC)cc(C(=O)Nn2c(C)nc3ccccc3c2=O)c1`, the “activity, negative = inhibition” value was inactive: 14.2%. With `O=C(NCc1ccco1)c1cc2ccc(O)cc2oc1=O` the Potency was inconclusive [inhibitor, partial curve]. In the case of `Cc1nc2ccccc2c2oc(C(=O)N3CCc4ccccc4C3)cc12`, the Potency is reported as active: 7.94 µM. With `OCCN1CCN(CCCN2c3ccccc3Sc3ccc(Cl)cc32)CC1` the Potency was inconclusive [inhibitor, partial curve]. With `CCOC(=O)c1c(NC(=O)Cc2cccs2)sc(C(=O)N2CCCCC2)c1C` the Potency was inconclusive [inhibitor, partial curve]. For `Cc1ccc(CCNC(=O)C2CCN(C(=O)c3sccc3-n3cccc3)CC2)cc1`, the Potency was inconclusive [inhibitor, single point]. For `COc1ccc(-c2nc3cnc(Oc4ccccc4)nc3n(C3CC3)c2=O)cc1`, the “activity, negative = inhibition” value was inactive: -8.69%. For `COc1ccc2sc(NC(=O)CC(C)C)nc2c1`, the Potency was inconclusive [inhibitor, partial curve]. In the case of `c1ccc2[nH]c(CN3CCN(c4ncnc5c4oc4ccccc45)CC3)nc2c1`, the Potency is reported as active: 12.6 µM. For `COc1cc(OC)cc(-c2cc3nc4c(c(N5CCN(c6ncccn6)CC5)n3n2)CCCC4)c1`, the “activity, negative = inhibition” value was inactive: 4.8%. With `CCC(=O)Nc1sc(C(=O)OC)c(C)c1C(=O)OC` the “activity, negative = inhibition” value was inactive: -15.7%. In the case of `Brc1cccc(-c2nnc(SCc3nc4ccccc4[nH]3)o2)c1`, the Potency is reported as inconclusive [inhibitor, single point]. For `CN1CCN(c2ncc3nc(CCc4ccccc4)c(=O)n(Cc4ccc(F)cc4)c3n2)CC1`, the Potency was inconclusive [inhibitor, full curve, poor fit]. With `CCC(c1nnc(SCc2nc3ccccc3s2)n1Cc1ccccc1)N(C)C` (stereo not given) the Potency was inconclusive [inhibitor, single point]. With `CC1=C(\C=C/C(C)=C/C=C\C(C)=C\C(=O)O)C(C)(C)CCC1` the Potency was “inactive”. With `CC(=Nc1ccc(O)cc1)c1sc2ccccc2c1O` the Potency was inconclusive [inhibitor, partial curve]. In the case of `COCC(=O)/C=C1\Sc2ccccc2N1C`, the “activity, negative = inhibition” value is reported as inactive: -3.75%. For `COC(=O)N1CC=CC1(C)C(=O)NCC1CC1` (stereo not given), the “activity, negative = inhibition” value was inactive: 4.28%. With `Cc1cccc(Nc2n[nH]c(=S)s2)c1C` the “activity, negative = inhibition” value was inactive: -5.92%. For `N#Cc1nc(-c2cccs2)oc1N1CCN(Cc2ccccc2)CC1`, the Potency was inconclusive [inhibitor, single point]. In the case of `COc1ccccc1Cn1nnc2c(=O)[nH]c(C3CCN(C(=O)c4ccc(C)cc4)CC3)nc21`, the Potency is reported as inconclusive [inhibitor, partial curve]. With `COc1ccc(C2OC(=O)c3ccccc3S2)cc1` (stereo not given) the Potency was inconclusive [inhibitor, partial curve]. With `COc1ccc(Nc2nc(C)c3ccccc3n2)cc1` the Potency was inconclusive [inhibitor, partial curve]. For `CN1C(=O)CSc2ccc(NC(=O)N3CCN(c4ccccn4)CC3)cc21`, the Potency was inconclusive [inhibitor, single point]. In the case of `Cc1ccc(Cl)cc1N1CCN(C(=O)CN2C(=O)c3cccc4cccc2c34)CC1`, the “activity, negative = inhibition” value is reported as inactive: 25.8%. With `N#Cc1cccc(-c2cncnc2NCc2ccccc2)c1` the “activity, negative = inhibition” value was inactive: 4.62%. In the case of `CCCN1C(=O)/C(=C2\SC(N3CCCCC3)=NC2=O)c2ccccc21`, the Potency is reported as inconclusive [inhibitor, full curve, poor fit]. With `COc1ccc(C(=O)CN2C(=O)NC3(CCCc4ccccc43)C2=O)cc1OC` (stereo not given) the Potency was inconclusive [inhibitor, partial curve]. In the case of `CCn1c(=O)c(C(=O)CN2CCCc3ccccc32)c(N)n(Cc2ccccc2)c1=O`, the “activity, negative = inhibition” value is reported as inactive: -20.2%. In the case of `CNc1oc(-c2ccc(OCc3ccccc3)cc2)nc1C#N`, the “activity, negative = inhibition” value is reported as inactive: -25%. In the case of `O=C(CSc1nc2ccccc2o1)c1cc2ccccc2oc1=O`, the Potency is reported as inconclusive [inhibitor, single point]. With `COc1ccccc1N1CCN(S(=O)(=O)c2c(C)ccc3nsnc23)CC1` the Potency was inconclusive [inhibitor, full curve, poor fit]. In the case of `CCOC(=O)Cn1nc(-c2ccc(Cl)cc2)cc1N`, the Potency is reported as inconclusive [inhibitor, single point]. In the case of `O=S1(=O)C=C(Sc2nc3cc(Cl)ccc3o2)c2ccccc21`, the Potency is reported as active: 10 µM. With `Cc1nc2ccccc2c2oc(C(=O)NCc3ccc4c(c3)OCO4)cc12` the Potency was inconclusive [inhibitor, partial curve]. With `O=C(NCc1ccccc1)c1cccc(S(=O)(=O)N2CCOCC2)c1` the Potency was inconclusive [inhibitor, partial curve]. For `COC(=O)c1ccc(CSc2nc3scc(-c4cccs4)c3c(=O)[nH]2)o1`, the “activity, negative = inhibition” value was inactive: -29.8%. With `CCCCNC(=O)C(c1ccc(OCC(=O)OC)c(C(=O)OC)c1)N(CCC1=CCCCC1)C(=O)CCCCCN1C(=O)NC(c2ccc(-c3ccccc3)cc2)C(C(=O)OCc2ccccc2)=C1C` (stereo not given) the “activity, negative = inhibition” value was inactive: -16.2%.
